Experimental data: PubChem BioAssay AID1508624 (National Center for Advancing Translational Sciences (NCATS), 2021)
Out of some 48,000 compounds screened, about 120 (0.25%) were called active. Inconclusive results (about 4%) are left out. Calls come from the whole dose curve; as a rule, active = well fitted activation curve with a large enough effect; inconclusive = small, poorly fitted or top-dose-only effect, or another doubt; inactive = no such curve, though single readings can be large or run the other way. The list shows a part of the results, in another mix than the full data. Entries without a call were filed so in the source.

Assay: Primary qHTS for Identification of Small Molecule Activators of Huntingtin-Antisense Promoter Activity; note: nearly all actives have a fitted effect of over 55% in size
Conditions: HEK293 HTT-AS promoter firefly luciferase reporter, 24 h; at 57.5 µM (top of the series) unless noted
From the text: Assay Provider: Russell L. Margolis M.D.
Department Neurology, Johns Hopkins University School of Medicine, Baltimore, MD
Huntington's Disease (HD) is a neurodegenerative disorder caused by a CAG repeat expansion in exon 1 of huntingtin (HTT). While there are currently no disease-modifying treatments for HD, recent efforts have focused on development of nucleotide-based therapeutics to lower HTT expression. As an alternative to siRNA or oligonucleotide methods, we hypothesized that suppression of HTT expression might be accomplished by small molecules that either (1) directly decrease HTT expression by suppressing HTT promoter activity or (2) indirectly decrease HTT expression by increasing the promoter activity of HTT-AS, the gene antisense to HTT that appears to inhibit expression of HTT.
We developed and employed a high throughput screen for modifiers of HTT and HTT-AS promoter activity using luminescent reporter HEK293 cells; of the 52,041 compounds tested, we identified 898 replicable hits. We used a rigorous stepwise approach to assess compound toxicity and the capacity of the compounds to specifically lower huntingtin protein in 5 different cell lines, including HEK293 cells, HD lymphoblastoid cells, mouse primary neurons, HD iPSCs differentiated into cortical-like neurons, and HD hESCs. We found no compounds which were able to lower huntingtin without lowering cell viability in all assays, though the potential efficacy of a few compounds at non-toxic doses could not be excluded.
SEQUENCE No. (1, 2, 3, etc.); […] (e.g., Cells, Incubation, Reagent, etc.); VALUE and DESCRIPTION.
1; Reagent; 4 uL; 2,500 Hek293 luciferase reporter cells per wells
3; Compound; 23 nL; Control inhibitor / compound library
5; Reagent; 2.5 uL; Firefly Luc reagent; Dual-Glo Luciferase Reporter Assay System (Promega)
6; Time; 10 min; room temperature incubation
7; Detection; Luminescence; FLuc
NOTES (numbers refer to sequence above)
1; High-throughput screening, measuring luminescence from a Hek293 luciferase reporter, was performed in 1,536 well white-walled tissue-culture treated plates. 2,500 cells were plated in 4 µL of Opti-MEM per well using a Multidrop Combi Reagent Dispenser (ThermoFisher).
2; Assay plates were cultured for 24 hours.
3; Control inhibitor (PTC124; final concentration of 50 uM) and compound library (at final concentrations of 460 nM - 57.5 uM) were added to the assay plate using the Kalypsis Pintool Robotic System equipped with 1536 pinheads.
4; Cells were then incubated for 24 hours at 37 degrees C prior to luminescence measurements.
5; In all cases, luminescence was measured using the Dual-Glo Luciferase Reporter Assay System (Promega) following the manufacturer's instructions.
6; Room temperature incubation.
7; Luminescence signal was obtained using the PerkinElmer ViewLux plate reader. Results were normalized to vehicle control (0% activity) and zero RLU (-100% activity).

Row | Structure (SMILES) | activity change, positive = activation
1 | CCc1cc(OC)c(C[C@H](C)N)cc1OC | inactive: -23.1% [at 116 µM]
2 | C[C@]12CC[C@@H]3c4ccc(OC(=O)N(CCCl)CCCl)cc4CC[C@H]3[C@@H]1CC[C@@H]2O | inactive: -11.7%
3 | COP(=S)(OC)SCN1C(=O)c2ccccc2C1=O | inactive: -25.7%
4 | C=CC[C@]1(O)CC[C@H]2[C@@H]3CCC4=CC(=O)CCC4=C3C=C[C@@]21C | inactive: -19.9%
5 | CCOC(=O)c1ccc(NC(=O)c2cccn(Cc3ccc(C)cc3)c2=O)cc1 | inactive: -42.8%
6 | O=C(Nc1ccc2c(c1)OCCO2)c1cccn(Cc2cccc(F)c2)c1=O | inactive: 7% [at 57.5 µM, percent change from vehicle, -100% = no light]
7 | Cc1oc2cc3oc(=O)c(CCC(=O)N4CCCCC4)c(C)c3cc2c1C | 70.2%
8 | CCCCCCCCCCCC[N+](C)(C)CCOc1ccccc1 | inactive: -35.5%
9 | Cc1ccc([N+](=O)[O-])[c]2c1[O][Hg]2 | inactive: -95.7%
10 | Cc1ccc(-n2c(=O)[nH]c3ccc(Br)cc3c2=O)cc1 | 9.51% [at 57.5 µM, percent change from vehicle, -100% = no light]
11 | CSCC[C@@H](NC(=O)[C@@H](Cc1ccccc1)NC(=O)CNC(=O)CNC(=O)[C@@H](N)Cc1ccc(O)cc1)C(=O)O | inactive: 2.45%
